# Assay results as given in PubChem BioAssay AID1671193 (National Center for Advancing Translational Sciences (NCATS), 2021).
# Screen size: about 150,000 compounds; about 180 (0.12%) were called active. Inconclusive means that the source gave no clear call. Such entries were picked first, then a sample of the others. The call rests on the fitted dose curve; in most records, active means well fitted cell-killing curve with a large enough effect; inconclusive means small, poorly fitted or top-dose-only effect, or effect the other way; inactive means flat fitted curve, though single readings scatter. Potencies beside an inconclusive call are fits to weak or partial responses and may not hold up.
# Experiment: GF-AFC viability counterscreen for inhibitors of alpha-synuclein gene (SNCA) expression; further: nearly all actives have a fitted effect of over 30% in size;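 on activity change, negative = cytotoxicity: 0% = DMSO-treated cells and -100% = medium-only wells without cells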
# Conditions: HEK-293-SNCA-luc viability, GF-AFC fluorescence, 24 h; activity change, negative = cytotoxicity: at 57.1 µM (top of the series) unless noted
# In short: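 HEK-293-SNCA-luc cells (1500/well) plated 24 h, then exposed 24 h to a dilution series; GF-AFC added 30 min at 37C, fluorescence 405/540 nm; normalised to medium-only and DMSO wells, Hill fit.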
# Potency means the concentration at half of the fitted maximal effect; tags describe the fitted curve by direction and shape.
Compound,Potency,"activity change, negative = cytotoxicity"
COc1ccc(C(=O)N2CCC(C(=O)Nc3ccc(Cl)cc3)CC2)cc1,"inconclusive: 28.2 µM [cytotoxic, partial curve, poor fit]",–
COc1cccc(CSc2nc3n(n2)C(CC(C)C)C(C(=O)Nc2ccccc2OC)=C(C)N3)c1 (stereo not drawn),"inconclusive: 1.41 µM [cytotoxic, full curve, poor fit]",–
CCCCN(CC)C(=O)c1cc2c(=O)n3cccc(C)c3nc2n1C,"inconclusive: 25.1 µM [rising, partial curve, poor fit]",–
Cc1ccc(CNC(=O)N2C[C@@H](Oc3ccccc3)C[C@@H]2C(=O)N2CCOCC2)cc1,–,inactive: -6.73%
COc1cccc(CN2CCCC(Cc3ncc(C)n3Cc3ccccc3)C2)c1 (stereo not drawn),"inconclusive: 25.1 µM [cytotoxic, single point]",–
Cc1ccc(NC(=O)CN2CCSc3ccc(S(=O)(=O)N4CCCC4)cc32)cc1,"inconclusive: 10 µM [cytotoxic, partial curve, poor fit]",–
CN(C)c1ncc2nc(-c3ccccc3)c(=O)n(-c3ccccc3)c2n1,"inconclusive: 15.8 µM [rising, partial curve]",–
Cc1cc(F)ccc1-c1[nH]nc2ncc(-c3ccsc3)nc12,–,inactive: -12% [at 87.6 µM]
Cc1ccccc1-c1[nH]nc2ncc(-c3ccc(F)cc3)nc12,"inconclusive: 35.5 µM [cytotoxic, partial curve, poor fit]",–
COc1ccc(C2(CNC(=O)[C@](C)(Cc3c[nH]c4ccccc34)NC(=O)Nc3ccc([N+](=O)[O-])cc3)CCCCC2)nc1,"inconclusive: 23.8 µM [cytotoxic, single point]",–
CSc1ccc(-c2cccc(C(=O)NCC(=O)NCc3cccc(F)c3)c2)cc1,"inconclusive: 10 µM [cytotoxic, partial curve, poor fit]",–
CCC1(O)CCC12CCN(C(=O)Cc1cccnc1)CC2 (stereo not drawn),"inconclusive: 5.01 µM [cytotoxic, single point]",–
CC1(C(=O)NC2CC2)CCCc2cnc(Nc3cccnc3)nc21 (stereo not drawn),"inconclusive: 8.91 µM [cytotoxic, full curve, poor fit]",–
O=C(COc1ccccc1)N1CCN2C(=O)N(Cc3ccccc3)C(=O)[C@H]2C1,–,inactive: 5.39% [at 87.6 µM]
Cc1ccc(C2Cn3nnc(C(=O)N4CCC(C(=O)NC5CCN(C)CC5)CC4)c3CO2)cc1 (stereo not drawn),–,inactive: 7.01%
COc1cccc(-n2cc(C(=O)NCCc3ccc(C)cc3)c3ccccc3c2=O)c1,"inconclusive: 15.8 µM [cytotoxic, partial curve, poor fit]",–
COc1ccc(Nc2ccnc(N3CCC(C(=O)NCC(F)(F)F)CC3)n2)cc1,–,inactive: -5.37% [at 12.5 µM]
CNC(=O)CCn1ncc2cc(OCc3ccccc3-c3ccc(F)cc3C)ccc21,–,inactive: -15.8% [at 87.6 µM]
COc1ccc(-c2nc(CSCC(=O)N3CCN(c4cccc(C)c4C)CC3)c(C)o2)cc1OC,"inconclusive: 20 µM [cytotoxic, partial curve, poor fit]",–

Compound,Potency,"activity change, negative = cytotoxicity"
COCCN1CCCC2(CCN(C(=O)CCN(C)S(C)(=O)=O)C2)C1=O (stereo not drawn),"inconclusive: 3.55 µM [rising, single point]",–
COc1cccc(CN(C(=O)c2oc3cc(C)ccc3c2C)C2CCS(=O)(=O)C2)c1 (stereo not drawn),"inconclusive: 22.4 µM [cytotoxic, partial curve]",–
FC(F)(F)c1ccc(Nc2nc(-c3c(C(F)(F)F)nc4ccccn34)cs2)cc1,"inconclusive: 29.9 µM [cytotoxic, partial curve, poor fit]",–
COc1cc2c(cc1OC)C(C[C@H]1CN(C(=O)Nc3cccc(Cl)c3)CC[C@H]1CC(=O)O)=NCC2,–,inactive: 3.2%
Cc1ccc(-c2nc3sc(CCNS(=O)(=O)c4cc(F)ccc4F)c(C)n3n2)cc1,"inconclusive: 10 µM [cytotoxic, partial curve, poor fit]",–
COc1cc(/C=C/c2nc(C#N)c(N3CCCCCC3)o2)cc(OC)c1OC,"inconclusive: 39.8 µM [rising, single point]",–
Cc1ccccc1C(=O)N1CCC(n2cc(-c3nc(-c4ccccc4)no3)nn2)C1 (stereo not drawn),–,inactive: -13.8%
COc1ccc([C@H]2C[C@@H](O)[C@@H](O)[C@@H]2NCc2cn(C)c3ccccc23)cc1,"inconclusive: 39.8 µM [cytotoxic, single point]",–
COc1ccccc1CNC(=O)CN1C(=O)COc2ccc(S(=O)(=O)Nc3ccccc3)cc21,"inconclusive: 14.1 µM [cytotoxic, single point]",–
CCc1c2c(nc3ccc(OC(=O)N4CCC(N5CCCCC5)CC4)cc13)-c1cc3c(c(=O)n1C2)COC(=O)[C@]3(O)CC,"inconclusive: 2.41 µM [cytotoxic, full curve]",–
CCCCS(=O)(=O)c1oc(-c2cccs2)nc1S(=O)(=O)c1ccccc1,active: 12.6 µM,–
COc1cccc(C(=O)Nc2ccc3nc(SCC(=O)N4CCOCC4)sc3c2)c1,"inconclusive: 39.8 µM [cytotoxic, single point]",–
CCOc1ccccc1NC(=O)c1cc(=O)c2ccc(C)cc2o1,"inconclusive: 0.178 µM [cytotoxic, full curve, poor fit]",–
COc1cccc(-c2noc(Nc3cc(OC)c(OC)c(OC)c3)n2)c1,"inconclusive: 28.2 µM [cytotoxic, partial curve, poor fit]",–
COC[C@@H]1[C@H](C(=O)N2CCN(c3ccc(F)cc3)CC2)CCCN1Cc1ccccc1,"inconclusive: 0.631 µM [cytotoxic, full curve, poor fit]",–
Cc1ccc(-c2nc(C(=O)NCc3ccc(Cl)cc3)c3n2CCCCC3)cc1,"inconclusive: 6.31 µM [cytotoxic, partial curve]",–
CCOc1ccccc1C(=O)N1CCCN(C)c2ccccc21,"inconclusive: 20 µM [cytotoxic, partial curve, poor fit]",–
CC(C)(C)n1cc(-c2cc(C(=O)N3C[C@H]4CC[C@H]3C4)c3ccccc3n2)cn1,–,inactive: -12.1%
O=C(NC1CCCN(c2cc(-c3ccc(Cl)cc3)[nH]n2)C1)c1ccoc1 (stereo not drawn),"inconclusive: 28.2 µM [cytotoxic, single point]",–
